The list shows a part of the results.

First the molecules themselves.
T1: UNK ZnF1-3 (human, UniProt Q9C0B0 31-174)
T1 sequence: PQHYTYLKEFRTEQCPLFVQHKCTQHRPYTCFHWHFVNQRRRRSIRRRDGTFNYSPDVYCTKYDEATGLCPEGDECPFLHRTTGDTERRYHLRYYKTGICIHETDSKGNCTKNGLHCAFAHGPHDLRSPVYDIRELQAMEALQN

B1: chr7:20150648:20150649:-_ENSMUSG00000044709_ENSMUST00000117222|mus_hu|motif|central (ssRNA)
RNA: GGGAGUUCUACAGUCCGACGAUCCUUGAAGGUAUAUGAAAUAAUGUCACUACAUCGGAGCAGCGCCUCUGCUUGCACACCGGUGGGAGUCUGCAGCUGUGACACGUAGAAGUUGGCCACAUCCAGGUCGGUGGCUCCAAAGUGCAACAGAGGAUUGAGCAUCA
B2: 143153144_143153264_2571_3pUTR_ENSMUSG00000030275_ENSMUST00000032413|mouse|control|control (ssRNA)
RNA: GGGAGUUCUACAGUCCGACGAUCAGCACUUAUGUGACCAAAGUGCAAAGCCUGUCUGACUAAUCUAAGUAAAGUUACCCCUGACUGCUCAACCCACAGAGCAGUCUUCAAAGAUUAAAGCCUUCUUGUCUACCUCAAAGACCUCAACAGAGGAUUGAGCAUCA
B3: 46694385_46694505_3160_3pUTR_ENSG00000069329_ENST00000568784|human|control|control (ssRNA)
RNA: GGGAGUUCUACAGUCCGACGAUCAAAGGAUGAGACCUUCAUAAAUUGGCCCCUCGGAUUCUGGUGAUUCCCGCCGCAAGCGCAAAUGCUCCAGUGUGUUAUGAAAAUGUUUGUUAAUCUGCUCUGUUUCUUCACUGGAUUCAACAACAGAGGAUUGAGCAUCA
B4: chr4:134969704:134969705:-_ENSMUSG00000059713_ENSMUST00000030606|mus_mus|motif|central (ssRNA)
RNA: GGGAGUUCUACAGUCCGACGAUCACUCCCAUGGUUUAAUUAUGCGUAAAGCUUUCCUCUGAAAACCAAAUCCUCCAGUCGGAAAAUAGUUUACAUAAAAAUAUAAAGCCCAGGCCCACCGUUAGUCUGGAAUAGAACUUGAUUCAACAGAGGAUUGAGCAUCA
B5: 53597998_53599450_495_3pUTR_ENSG00000023287_ENST00000025008|human|control|control (ssRNA)
RNA: GGGAGUUCUACAGUCCGACGAUCCAGUGUUAACCAGAAAUACAUAUAACUUCAUGAUGAUUUAUCUGAAUUCUGUGAGCUUAUACCUCACCCUCUGAUACAGUUACGUCAGGCACUGUGAAAAGGACUACCACUUUUCUUAAACAACAGAGGAUUGAGCAUCA
B6: chr14:90871201:90871202:+_ENSG00000198668_ENST00000553542|hu_mus|FALSE|FALSE (ssRNA)
RNA: GGGAGUUCUACAGUCCGACGAUCCGACCAAUACAUGCAGACUUUGUGUGUGGACAGAGGGGCUUCUGACAUUCAGCUUCGCUAGAUACAAACAGAAUGAAGAAAUGAACUUUUUCUUUUUUUUUCUUUUUUUUGUAAGAGGUACAACAGAGGAUUGAGCAUCA
B7: chr9:88289291:88289292:-_ENSMUSG00000032422_ENSMUST00000140439|mus_mus|FALSE|FALSE (ssRNA)
RNA: GGGAGUUCUACAGUCCGACGAUCUCCUUCUUCUCUUUCCUUUCAGAGGAGGGAUCUUCAAAAAAGUCUACAUACGGAAUGCUAAUUUUCCAGGCAGCAAGGUUUCGAGGAGUGUUAGGUGUGCUCACAGCUUCUACUGGAGAGCAACAGAGGAUUGAGCAUCA
B8: chr14:35777207:35777208:+_ENSG00000100902_ENST00000261479|hu_hu|motif|central (ssRNA)
RNA: GGGAGUUCUACAGUCCGACGAUCUUUGUCAGGUACUUUCUUCUGUGUGACAAUUACUGCACAGUCUUUCCCUCUGACAGCGGCUGAUGUAAGGCCACCCUGGUUAAUAGCCUUAAAAGCAUAUUCUACUUGGUAGAGCCGACCCAACAGAGGAUUGAGCAUCA
B9: chr14:59836542:59836543:+_ENSMUSG00000035469_ENSMUST00000043227|mus_mus|FALSE|FALSE (ssRNA)
RNA: GGGAGUUCUACAGUCCGACGAUCCCAAGCAAAUAACUCUCCAUCAGCUGCUAAAGCCAUCGAAUGAUGUGAACCACAAGCUACUUCAAUCACCUGCUUGAUCAAGAGAUUAGUACAGACUUGGACAGGAGCAAUGCCUUGGUUCAACAGAGGAUUGAGCAUCA
B10: 154938479_154938680_1490_3pUTR_ENSG00000160691_ENST00000448116|human|control|control (ssRNA)
RNA: GGGAGUUCUACAGUCCGACGAUCACCACCCACUGCUUGCCGGGCCUUGUCUAGGUUCUGGACGUUGACAUAGGAGGGAUCAUCAAAAAGCUCUCUGCCUGCUGGACAGGGUGGUGGAGGUGGCAUCUGUUUGCGGACUUCUGGCAACAGAGGAUUGAGCAUCA
B11: 113244221_113245190_541_CDS_ENSG00000155366_ENST00000369637|human|control|control (ssRNA)
RNA: GGGAGUUCUACAGUCCGACGAUCGGCCAUCUCAAACACCUCCCGCACUCCCUCCUUGGUCUUGGCUGAGCACUCAAGGUAGCCAAAGGCACUGAUCCGGUUCGCCAUGUCCCGGCCUUCCUCAGACCGAACGGGCUCCUGCUUCAACAGAGGAUUGAGCAUCA
B12: chr4:124478334:124478335:+_ENSMUSG00000028894_ENSMUST00000094782|mus_mus|motif|central (ssRNA)
RNA: GGGAGUUCUACAGUCCGACGAUCGGCUGAAUAAGGCAAAGUACAGUUACUUAAAACUUUUAAAUAAAAAUGAAUAGGGAGCGGUUUGUGUUAAAUAACUAGAGUUGAAUGUGGAACGUCAGUUCUACUAUGGUGGAUUGCCCCCAACAGAGGAUUGAGCAUCA
B13: chr7:127231458:127231459:+_ENSG00000004059_ENST00000000233|hu_hu|FALSE|FALSE (ssRNA)
RNA: GGGAGUUCUACAGUCCGACGAUCCAGGCUCCAACAACAGAGAGAACAUGCAGGCAGGAGCAGGAGCAGAGGCCUGUGGCUAUGGGGGAGGAAAAGUGGGAGGAAAGGGCACUGCCUGAGGAGUCCGGGAGUCUGGUCAUCCCGCAACAGAGGAUUGAGCAUCA
B14: chr3:31678068:31678069:+_ENSG00000163527_ENST00000295770|hu_mus|FALSE|FALSE (ssRNA)
RNA: GGGAGUUCUACAGUCCGACGAUCUCUUCACACCGGAGAAACAGGAAAAUAAAUAGAGUUCCCAGACGUAGACUCUCCUUUAGCACGUCUCUCUCAGACCUGGGCUAGUUUGUUUACUGGUCAAGAAGCUCUCAUCACAUCUGCCAACAGAGGAUUGAGCAUCA
B15: chr4:76703833:76703834:+_ENSG00000138768_ENST00000264904|hu_mus|FALSE|FALSE (ssRNA)
RNA: GGGAGUUCUACAGUCCGACGAUCAUUGGAAUUGUUGGUUUUUAACAAGUUUUGAAGUAAAAUCAAACAAUCUUCCACUACUAUACCUCCGUCACUGUUCCCCUCCUCUGUAAUAAUGUCCAGCAGUCGCUCAAAAGCAUUUUCCAACAGAGGAUUGAGCAUCA
B16: chr2:129025431:129025432:+_ENSMUSG00000027397_ENSMUST00000028880|mus_hu|FALSE|FALSE (ssRNA)
RNA: GGGAGUUCUACAGUCCGACGAUCGUACUGGUAAUCAGCGUUGCCAUUCUCUGGAGUAGUGGUUGUUUAGUAAGAGAACUACUGAGCGCCUUUCAAGAUGUGUAAACAGAAUAUGAGGUAUCAAAAAUGCUAUAAUAAAUAAUACAACAGAGGAUUGAGCAUCA
B17: chr4:140556289:140556290:+_ENSMUSG00000036622_ENSMUST00000037055|mus_mus|mus_mus_mus_hu_False|28_38 (ssRNA)
RNA: GGGAGUUCUACAGUCCGACGAUCGAUGGAGCUCACCAGGCCCCCUUUUGCCGUGCAGAACCCUGUGCGGGUCACCACUGCCAGGACGUGCGGUCCCACGUAGGCUCGGGCCUGCAGGAUGAGGGUCCCGCAGAAGAGUGUGUGCAACAGAGGAUUGAGCAUCA
B18: chr9:2804355:2804356:-_ENSG00000080608_ENST00000397885|hu_mus|FALSE|FALSE (ssRNA)
RNA: GGGAGUUCUACAGUCCGACGAUCCGGGUUCCCGCUUGCUCAUCCUGCUGCCUACGCAGUCAGCUUCUCAAGCAGGGUCUGGAUGCCUCUGCUGCUGCUUUUGUUUUUUUCCAAGGUAGGAAUCAGGGGUUUCAGUCCACCUUUCAACAGAGGAUUGAGCAUCA
B19: chr2:217001844:217001845:+_ENSG00000079246_ENST00000392132|hu_hu|hu_hu_hu_mus_False|1_78 (ssRNA)
RNA: GGGAGUUCUACAGUCCGACGAUCACCAACUUGAGGAUUAGAUCUUUUGUCAUAAGCAUAUCGAACUAUGGCGACCAUGUUUAACUCAUCCAAAGCAUGAACGAGAGAGGAAAGGGCAACAGCUGCCGCCUCAUCAUCUCUUGCCAACAGAGGAUUGAGCAUCA
B20: chr4:132926270:132926271:+_ENSMUSG00000028854_ENSMUST00000030669|mus_mus|motif|central (ssRNA)
RNA: GGGAGUUCUACAGUCCGACGAUCGAGAUUCACAAUCUCAAAGUCCAAACUGCAAAAAGGGGUUAAGUACCUUGGAGGGACGGAGGAGGAAACCGAAAGGAUCUAGAACUUCAGGCUGAGAGAAGGAAAUCGGGGAAACUGCGUCAACAGAGGAUUGAGCAUCA
B21: chr2:175094126:175094127:-_ENSG00000138430_ENST00000344357|hu_mus|FALSE|FALSE (ssRNA)
RNA: GGGAGUUCUACAGUCCGACGAUCUCUGCUCUCAUUAGGAUCAAUAGUGCAGAAUGGGAAGUUUUCUGCUGAAGCCUGACUAUUGGUUAAUACAUUGAAGAAGGUAGACUUCCCAACAUUUGGCAAUCCAACGAUACCAAUUUUCAACAGAGGAUUGAGCAUCA
B22: 126997051_126997171_7805_CDS_ENSMUSG00000040249_ENSMUST00000049149|mouse|control|control (ssRNA)
RNA: GGGAGUUCUACAGUCCGACGAUCGAUGCCCAUGGGUUGCUGGGGAAUGUCCACCCGAAGCAGCUUCAUGUCGCUGCCCACAUACUUGUUGGCUCGCUGCACAGCCCGCCGCACCCAGUCAGUCCAGAAAAUGUGCUCUCCGUACAACAGAGGAUUGAGCAUCA

The target of the assay is T1, UNK ZnF1-3. Put plainly: nsRBNS (natural sequence RNA bind-n-seq); RBNS binding buffer (assumed for nsRBNS): 25 mM Tris pH 7.5, 150 mM KCl, 3 mM MgCl2, 0.01% Triton X-100, 500 ug/ml BSA, 20 U/ml SUPERase-In, 4 C; UNK is unkempt and MSI1 is Musashi-1; names of the RNAs are library labels; protein concentration not given here; high values mean tight binding.
For B1, the binding signal worked out at 0.98 enrichment R.
The molecule B2 gave a binding signal of 1.35 enrichment R.
For B3 the value was 1.23 enrichment R.
For B4 the value was 1.39 enrichment R; for B5, 0.899 enrichment R.
For B6 the value was 2.35 enrichment R; for B7, 1.27 enrichment R.
B8 yielded a binding signal of 0.541 enrichment R.
As for B9, the figure is 1.06 enrichment R; as for B10, 1.58 enrichment R.
B11 displayed a binding signal of 1.21 enrichment R.
On to B12, for which the binding signal worked out at 2.62 enrichment R.
As for B13, the figure is 2.13 enrichment R; as for B14, 1.21 enrichment R.
For B15 the value was 0.703 enrichment R.
In turn, B16 came in with a binding signal of 2.08 enrichment R.
For B17 the value was 1.11 enrichment R.
As for B18, the figure is 0.361 enrichment R; as for B19, 1.45 enrichment R; as for B20, 1.49 enrichment R.
As for B21, the figure is 1.13 enrichment R; as for B22, 0.81 enrichment R.
